Assay results taken from PubChem BioAssay AID588855 (National Center for Advancing Translational Sciences (NCATS), 2011).
The campaign covered roughly 410,000 compounds. About 5,000 (1.2%) were called active. The inconclusive results got no clear call from the source; some entries with a clear call stand among them for comparison. Calls follow the shape of the dose curve; as a rule, active = well fitted inhibition curve with a large enough effect; inconclusive = small, poorly fitted or top-dose-only effect; inactive = no such curve, though single readings can be large or run the other way. Potencies of inconclusive entries are doubtful fits and often do not repeat.
Potency is read from the fitted curve at half-maximal effect; tags tell the direction and shape of the fitted curve.

Assay: qHTS for Inhibitors of TGF-b; also: nearly all actives have a fitted effect of over 65% in size
Conditions: HepG2 CAGA-GFP TGF-b/SMAD3 reporter, GFP fluorescence, 18 h, TGF-beta stimulated, 500 pg/mL final; series mostly up to 46.1 µM
Procedure, shortened: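 HEPG2 CAGA-GFP reporter cells (1000/well, DMEM with 1% FBS) received compounds, then recombinant TGF-beta at 500 pg/mL final for 18 hours at 37 degrees C. Per-cell GFP summed per well was normalised to unstimulated and stimulated DMSO controls before curve fitting.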
In the case of `COc1ccc(C(C)(O)c2nc(-c3cccc(C(C)C)c3)cs2)cc1` (centres undefined), the Potency is reported as inconclusive: 15.8 µM [inhibitor, single point].
In the case of `CCN1CCN(c2c(S(=O)(=O)c3ccc(Cl)cc3)cnc3ccccc23)CC1`, the Potency is reported as inconclusive: 0.562 µM [inhibitor, full curve, poor fit].
With `CCCCCCSc1nsc(NC(=O)CCC)n1` the Potency was inconclusive: 14.1 µM [inhibitor, single point].
For `O=C(NCCCN1CCOCC1)c1ccc(Cl)c(S(=O)(=O)N2CCCCCC2)c1`, the Potency was inconclusive: 35.5 µM [inhibitor, single point].
For `Cc1[nH]c2ccccc2c1C(O)c1ccncc1` (centres undefined), the Potency was “inactive”.
For `CCN(CC)CCSc1nnc2c3cc(C)ccc3n(Cc3ccccc3)c2n1`, the Potency was inconclusive: 31.6 µM [inhibitor, single point].
For `CCCCCCCCNS(=O)(=O)CCNCc1ccccc1OC`, the Potency was inconclusive: 15.8 µM [inhibitor, single point].
In the case of `Cc1cc(C)nc(SCc2cc(=O)c(OC(=O)c3cccc([N+](=O)[O-])c3)co2)n1`, the Potency is reported as “inactive”.
In the case of `CCC(C)Sc1nc2c(c(=O)[nH]1)C(c1cccs1)C1=C(CCCC1=O)N2` (centres undefined), the Potency is reported as inconclusive: 35.5 µM [inhibitor, single point].
For `Cc1ccc(NC(=O)c2ccc(C)cc2)cc1`, the Potency was inconclusive: 25.1 µM [inhibitor, single point].
With `Cc1cc(C)c2nc(NCCCNC(=S)NCCCN(C)C)c(C#N)cc2c1` the Potency was inconclusive: 35.5 µM [inhibitor, single point].
With `COc1cccc(CNC(=O)c2cccc(S(=O)(=O)N3CCN(c4ccc(F)cc4)CC3)c2)c1` the Potency was inconclusive: 7.08 µM [inhibitor, partial curve, poor fit].
With `Cc1cccc(NC(=O)c2n[nH]c([N+](=O)[O-])c2Br)c1C` the Potency was inconclusive: 25.1 µM [inhibitor, single point].
With `C(=C\c1nccc2c1[nH]c1ccccc12)/c1ccccc1` the Potency was inconclusive: 22.4 µM [inhibitor, single point].
With `CCCCCC(=O)Nc1nc(C)c(-c2csc(Nc3cc(Cl)ccc3C)n2)s1` the Potency was “inactive”.
With `c1ccc(C(c2ccccc2)c2noc(CN3CCN(CC4CC4)CC3)n2)cc1` the Potency was “inactive”.
With `CC(C)c1cccc(C(C)C)c1OC(=O)[C@H]1OC(c2ccc(Br)cc2)=C[C@@H]1c1ccc(Br)cc1` the Potency was inconclusive: 35.5 µM [inhibitor, partial curve, poor fit].
For `Cc1ccnc(NC(=O)CNC(=O)c2ccc3ccccc3c2)c1`, the Potency was inconclusive: 35.5 µM [inhibitor, single point].
In the case of `CCOc1ccccc1NC(=S)N1CCCc2ccccc21`, the Potency is reported as “inactive”.
With `COc1ccc(CN2CCN(S(=O)(=O)c3ccc(F)cc3)CC2)c(OC)c1OC` the Potency was “inactive”.
In the case of `CS(=O)(=O)N1CCN(c2ccccc2NC(=O)c2ccc(-c3ccc(Br)cc3)o2)CC1`, the Potency is reported as “inactive”.
For `CCOC(=O)N1CCC(NC(=O)c2cc(C(=O)Nc3ccc(F)cc3F)ccc2CO)CC1`, the Potency was “inactive”.
In the case of `COc1ccc(OCC(=O)NC(=S)Nc2ccccc2F)cc1`, the Potency is reported as inconclusive: 22.4 µM [inhibitor, single point].
In the case of `COCCCNc1nccn2ccnc12`, the Potency is reported as “inactive”.
For `Cc1cccc(NS(=O)(=O)c2cc(C(=O)NCCC3=CCCCC3)ccc2Cl)c1`, the Potency was inconclusive: 31.6 µM [inhibitor, single point].
In the case of `CCOc1nc(NC(=O)NS(=O)(=O)Oc2cccc(Cl)c2)nc(-c2ccccc2)n1`, the Potency is reported as “inactive”.
For `Cc1ccc(F)c([C@H]2[C@H]3C=CC[C@@H](C)[C@@H]3C(=O)N2Cc2ccccc2)c1`, the Potency was inconclusive: 14.1 µM [inhibitor, partial curve, poor fit].
In the case of `Cc1cccc(OCCCC(=O)Nc2nnc(C3CCCO3)s2)c1C` (centres undefined), the Potency is reported as inconclusive: 5.62 µM [inhibitor, single point].
In the case of `CS(=O)(=O)N(CC(=O)Nc1ccc(CC#N)cc1)c1ccc(C23CC4CC(CC(C4)C2)C3)cc1`, the Potency is reported as active: 7.08 µM.
In the case of `C#CCSc1nnc(C)c(C)n1`, the Potency is reported as inconclusive: 0.447 µM [inhibitor, full curve, poor fit].
With `O=C(Oc1ccc2c(c1)O/C(=C\c1ccncc1)C2=O)c1cccs1` the Potency was “inactive”.
With `COc1ccccc1N1CCN(S(=O)(=O)c2ccc3c(c2)NC(=O)CS3)CC1` the Potency was inconclusive: 12.6 µM [inhibitor, partial curve].
For `O=C(CCCNS(=O)(=O)c1cccc2nsnc12)NCc1ccc(Cl)cc1`, the Potency was inconclusive: 20 µM [inhibitor, partial curve, poor fit].
In the case of `Cc1cc(C)cc(NC(=O)C2CCN(C(=O)c3cnn(-c4ccccc4)c3-n3cccc3)CC2)c1`, the Potency is reported as inconclusive: 15.8 µM [inhibitor, partial curve, poor fit].
With `O=C(Cc1cccc(NC(=O)C2CCCN(C(=O)C3CCC3)C2)c1)Nc1ccc(C(=O)N2CCCCC2)cc1` (centres undefined) the Potency was “inactive”.
For `O=S(=O)(Nc1c(O)ccc2ccccc12)c1ccccc1`, the Potency was inconclusive: 35.5 µM [inhibitor, single point].
In the case of `Cc1ccccc1OCCNCC(C)O` (centres undefined), the Potency is reported as “inactive”.
In the case of `CCCCCCC(=O)Nc1nc(C)c(-c2csc(Nc3ccccc3OC)n2)s1`, the Potency is reported as inconclusive: 1.41 µM [inhibitor, partial curve].
In the case of `CCc1ccccc1NC(=O)CSc1nc2n[nH]c(C)c2c(=N)n1-c1cccc(C)c1`, the Potency is reported as inconclusive: 6.31 µM [inhibitor, single point].
For `Cc1ccc(-c2cnc(C(O)c3ccc(Cl)c(F)c3)[nH]2)cc1` (centres undefined), the Potency was “inactive”.
For `O=C(c1ccc(F)cc1)N1CCCN(c2nc(-c3ccccc3)ns2)CC1`, the Potency was inconclusive: 2.51 µM [inhibitor, partial curve].
In the case of `O=C(NCc1cccs1)c1ccc(CSc2nc3cccnc3n2Cc2ccc(F)cc2)cc1`, the Potency is reported as inconclusive: 35.5 µM [inhibitor, single point].
For `CCCCCC(=O)N/N=C/c1ccc([N+](=O)[O-])o1`, the Potency was inconclusive: 35.5 µM [inhibitor, single point].
With `CCn1c(Cc2c(C)[nH]c3ccccc23)n[nH]c1=S` the Potency was “inactive”.
